Source: the supplement of paper PMC11741623
This is one part of the list. Interaction screen of human proteins with wild-type SARS-CoV-2 proteins by split-DHFR complementation in yeast, 1 µg/mL methotrexate. Value = fitness of the pair (three or more lineages) minus that of the viral protein without a human partner, on a scale set by negative (0) and fused positive (1) controls, mean of up to three cultures; higher = more likely to interact. Active = false discovery rate below 0.05 (one-sided t-test) in at least one culture. Nearly all pairs are not hits, and differences among them are mostly noise (correlation between cultures about 0.3); most hits were seen in one culture only. Human sequences are the Swiss-Prot entries looked up by gene name; the clone may be another isoform. NSP2 values were corrected by the authors for a growth advantage. Listed are human proteins with a hit and a random twelfth of the others.

B1: C22orf13, Q96NT3 (protein)
chain: MRTEAEAAGPPLEPGDFVQLPVPVIQQLYHWDCGLACSRMVLRYLGQLDDSEFERALQKLQLTRSIWTIDLAYLMHHFGVRHRFCTQTLGVDKGYKNQSFYRKHFDTEETRVNQLFAQAKACKVLVEKCTVSVKDIQAHLAQGHVAIVLVNSGVLHCDLCSSPVKYCCFTPSGHHCFCRTPDYQGHFIVLRGYNRATGCIFYNNPAYADPGMCSTSISNFEEARTSYGTDEDILFVYLDS
B2: CNDP2, Q96KP4 (protein)
chain: MAALTTLFKYIDENQDRYIKKLAKWVAIQSVSAWPEKRGEIRRMMEVAAADVKQLGGSVELVDIGKQKLPDGSEIPLPPILLGRLGSDPQKKTVCIYGHLDVQPAALEDGWDSEPFTLVERDGKLYGRGSTDDKGPVAGWINALEAYQKTGQEIPVNVRFCLEGMEESGSEGLDELIFARKDTFFKDVDYVCISDNYWLGKKKPCITYGLRGICYFFIEVECSNKDLHSGVYGGSVHEAMTDLILLMGSLVDKRGNILIPGINEAVAAVTEEEHKLYDDIDFDIEEFAKDVGAQILLHSHKKDILMHRWRYPSLSLHGIEGAFSGSGAKTVIPRKVVGKFSIRLVPNMTPEVVGEQVTSYLTKKFAELRSPNEFKVYMGHGGKPWVSDFSHPHYLAGRRAMKTVFGVEPDLTREGGSIPVTLTFQEATGKNVMLLPVGSADDGAHSQNEKLNRYNYIEGTKMLAAYLYEVSQLKD
B3: HTRA4, P83105 (protein)
chain: MIRPQLRTAGLGRCLLPGLLLLLVPVLWAGAEKLHTQPSCPAVCQPTRCPALPTCALGTTPVFDLCRCCRVCPAAEREVCGGAQGQPCAPGLQCLQPLRPGFPSTCGCPTLGGAVCGSDRRTYPSMCALRAENRAARRLGKVPAVPVQWGNCGDTGTRSAGPLRRNYNFIAAVVEKVAPSVVHVQLWGRLLHGSRLVPVYSGSGFIVSEDGLIITNAHVVRNQQWIEVVLQNGARYEAVVKDIDLKLDLAVIKIESNAELPVLMLGRSSDLRAGEFVVALGSPFSLQNTATAGIVSTKQRGGKELGMKDSDMDYVQIDATINYGNSGGPLVNLDGDVIGVNSLRVTDGISFAIPSDRVRQFLAEYHEHQMKGKAFSNKKYLGLQMLSLTVPLSEELKMHYPDFPDVSSGVYVCKVVEGTAAQSSGLRDHDVIVNINGKPITTTTDVVKALDSDSLSMAVLRGKDNLLLTVIPETIN
B4: PGAP3, Q96FM1 (protein)
chain: MAGLAARLVLLAGAAALASGSQGDREPVYRDCVLQCEEQNCSGGALNHFRSRQPIYMSLAGWTCRDDCKYECMWVTVGLYLQEGHKVPQFHGKWPFSRFLFFQEPASAVASFLNGLASLVMLCRYRTFVPASSPMYHTCVAFAWVSLNAWFWSTVFHTRDTDLTEKMDYFCASTVILHSIYLCCVRTVGLQHPAVVSAFRALLLLMLTVHVSYLSLIRFDYGYNLVANVAIGLVNVVWWLAWCLWNQRRLPHVRKCVVVVLLLQGLSLLELLDFPPLFWVLDAHAIWHISTIPVHVLFFSFLEDDSLYLLKESEDKFKLD

Each binder was assayed against SARS-CoV-2 E (assay: yeast fitness gain over the viral ORF with no human partner (scaled fitness); higher = more likely to interact).
Description: (§1)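 Split mouse DHFR complementation in pooled diploid yeast: human ORFeome clones carry one fragment and viral ORFs the other; barcoded lineages compete in 1 µg/mL methotrexate and fitness is read by barcode sequencing in up to three cultures.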

| Binder | yeast fitness gain |
| --- | --- |
| B1 | inactive: -0.297 |
| B2 | inactive: -0.0245 |
| B3 | inactive: -0.00438 |
| B4 | inactive: -0.346 |

Each binder was assayed against SARS-CoV-2 M in the same assay as above.
Description: as §1

| Binder | yeast fitness gain |
| --- | --- |
| B1 | inactive: 0.0585 |
| B2 | inactive: 0.0454 |
| B3 | inactive: 0.0435 |
| B4 | inactive: -0.032 |

These binders were tested against SARS-CoV-2 N in the same assay as above.
Description: as §1

| Binder | yeast fitness gain |
| --- | --- |
| B1 | inactive: -0.0396 |
| B2 | inactive: 0.0411 |
| B4 | inactive: 0.0423 |

The binders below were run against SARS-CoV-2 NSP1 in the same assay as above.
Description: as §1

| Binder | yeast fitness gain |
| --- | --- |
| B1 | inactive: 0.0509 |
| B2 | inactive: 0.152 |
| B4 | inactive: -0.147 |

What follows are binders tested against SARS-CoV-2 NSP10 in the same assay as above.
Description: as §1

| Binder | yeast fitness gain |
| --- | --- |
| B1 | inactive: -0.0545 |
| B2 | inactive: 0.00824 |
| B3 | inactive: 0.0228 |
| B4 | inactive: -0.0482 |

The binders below were run against SARS-CoV-2 NSP14 in the same assay as above.
Description: as §1

| Binder | yeast fitness gain |
| --- | --- |
| B1 | inactive: -0.0245 |

The binders below were run against SARS-CoV-2 NSP15 in the same assay as above.
Description: as §1

| Binder | yeast fitness gain |
| --- | --- |
| B1 | inactive: 0.0169 |
| B2 | inactive: 0.0365 |
| B4 | inactive: 0.0488 |

What follows are binders tested against SARS-CoV-2 NSP16 in the same assay as above.
Description: as §1

| Binder | yeast fitness gain |
| --- | --- |
| B1 | inactive: 0.0788 |
| B2 | inactive: 0.0271 |
| B4 | inactive: -0.108 |

The binders below were run against SARS-CoV-2 NSP4 in the same assay as above.
Description: as §1

| Binder | yeast fitness gain |
| --- | --- |
| B1 | inactive: 0.109 |
| B4 | inactive: -0.053 |

What follows are binders tested against SARS-CoV-2 NSP5 in the same assay as above.
Description: as §1

| Binder | yeast fitness gain |
| --- | --- |
| B1 | inactive: -0.0126 |
| B2 | inactive: -0.0192 |
| B3 | inactive: -0.0763 |
| B4 | inactive: -0.0502 |

The binders below were run against SARS-CoV-2 NSP9 in the same assay as above.
Description: as §1

| Binder | yeast fitness gain |
| --- | --- |
| B1 | inactive: 0.00245 |
| B2 | inactive: 0.0124 |
| B4 | inactive: -0.00662 |

These binders were tested against SARS-CoV-2 ORF3A in the same assay as above.
Description: as §1

| Binder | yeast fitness gain |
| --- | --- |
| B1 | inactive: 0.0632 |
| B2 | inactive: -0.145 |
| B4 | inactive: 0.0358 |

The binders below were run against SARS-CoV-2 ORF8 in the same assay as above.
Description: as §1

| Binder | yeast fitness gain |
| --- | --- |
| B1 | inactive: -0.00235 |
| B2 | inactive: 0.0321 |
| B3 | inactive: 0.0203 |
| B4 | inactive: 0.0161 |

These binders were tested against SARS-CoV-2 ORF9Bwu (the 73-codon ORF) in the same assay as above.
Description: as §1

| Binder | yeast fitness gain |
| --- | --- |
| B1 | inactive: 0.0104 |
| B3 | inactive: -0.0402 |
| B4 | inactive: 0.0297 |

What follows are binders tested against SARS-CoV-2 S in the same assay as above.
Description: as §1

| Binder | yeast fitness gain |
| --- | --- |
| B1 | inactive: -0.0354 |
| B2 | inactive: -0.0457 |
| B3 | inactive: -0.243 |
| B4 | inactive: 0.0302 |

Each binder was assayed against SARS-CoV-2 NSP12 in the same assay as above.
Description: as §1

| Binder | yeast fitness gain |
| --- | --- |
| B2 | inactive: 0.0502 |
| B3 | inactive: -0.246 |
| B4 | inactive: -0.00209 |

These binders were tested against SARS-CoV-2 NSP13 in the same assay as above.
Description: as §1

| Binder | yeast fitness gain |
| --- | --- |
| B2 | inactive: -0.0703 |
| B3 | inactive: 0.0449 |
| B4 | inactive: 0.0282 |

Each binder was assayed against SARS-CoV-2 NSP2 in the same assay as above.
Description: as §1

| Binder | yeast fitness gain |
| --- | --- |
| B2 | inactive: 0.0826 |
| B3 | inactive: 0.0397 |
| B4 | inactive: -0.128 |

The binders below were run against SARS-CoV-2 NSP6 in the same assay as above.
Description: as §1

| Binder | yeast fitness gain |
| --- | --- |
| B2 | inactive: -0.0146 |
| B4 | inactive: 0.0541 |

The binders below were run against SARS-CoV-2 NSP7 in the same assay as above.
Description: as §1

| Binder | yeast fitness gain |
| --- | --- |
| B2 | inactive: -0.067 |
| B4 | inactive: -0.0972 |

What follows are binders tested against SARS-CoV-2 NSP8 in the same assay as above.
Description: as §1

| Binder | yeast fitness gain |
| --- | --- |
| B2 | inactive: -0.0424 |
| B3 | inactive: -0.126 |
| B4 | inactive: 0.0188 |

Each binder was assayed against SARS-CoV-2 ORF10 in the same assay as above.
Description: as §1

| Binder | yeast fitness gain |
| --- | --- |
| B2 | inactive: -0.0672 |
| B3 | inactive: 0.12 |
| B4 | inactive: -0.00925 |

These binders were tested against SARS-CoV-2 ORF3B in the same assay as above.
Description: as §1

| Binder | yeast fitness gain |
| --- | --- |
| B2 | inactive: 0.0522 |
| B3 | inactive: 0.00824 |
| B4 | inactive: -0.00322 |

Each binder was assayed against SARS-CoV-2 ORF6 in the same assay as above.
Description: as §1

| Binder | yeast fitness gain |
| --- | --- |
| B2 | inactive: -0.00721 |
| B3 | inactive: -0.234 |
| B4 | inactive: 0.0194 |

The binders below were run against SARS-CoV-2 ORF7A in the same assay as above.
Description: as §1

| Binder | yeast fitness gain |
| --- | --- |
| B2 | inactive: 0.0126 |
| B3 | inactive: -0.315 |
| B4 | inactive: 0.046 |

These binders were tested against SARS-CoV-2 ORF7B in the same assay as above.
Description: as §1

| Binder | yeast fitness gain |
| --- | --- |
| B2 | inactive: -0.05 |
| B3 | inactive: -0.00108 |
| B4 | inactive: -0.0554 |

What follows are binders tested against SARS-CoV-2 ORF9B in the same assay as above.
Description: as §1

| Binder | yeast fitness gain |
| --- | --- |
| B2 | inactive: -0.013 |
| B3 | inactive: 0.0291 |
| B4 | inactive: 0.0359 |
